{"source": "the supplement of paper PMC9446081", "note": "The whole screen tested about 39,000 compounds, of which about 220 (0.56%) showed activity. Some of the results follow.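 Also: static incubation at 37 °C against the wild-type strain, values averaged over two biological replicates.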", "data": [{"test_system": "Escherichia coli K-12 BW25113", "assay": "relative growth (OD600 normalised to plate interquartile mean) (fraction); higher = less growth inhibition, active = 0.2 or less", "settings": "50 µM; LB; incubation time: overnight (16-24 h)", "values": [{"smiles": "O=C1O[C@@H](c2ccccc2)[C@@H](c2ccccc2)N2[C@@H](c3ccc(OCCO)cc3)[C@]3(C(=O)Nc4ccccc43)[C@@H](C(=O)N3CCCCCCC3)[C@H]12", "relative growth": "inactive: 1.04"}, {"smiles": "O=C1O[C@@H](c2ccccc2)[C@@H](c2ccccc2)N2[C@@H](c3ccc(OCCO)cc3)[C@]3(C(=O)Nc4ccc(C#CC5(O)CCCCCC5)cc43)[C@@H](C(=O)NC[C@H](O)c3ccccc3)[C@H]12", "relative growth": "inactive: 1.1"}, {"smiles": "CCS(=O)(=O)Nc1ccc2c(c1)C(=O)N(C)C[C@@H](OC)[C@H](C)CN(C(=O)c1ccc3c(c1)OCO3)[C@@H](C)CO2", "relative growth": "inactive: 0.947"}, {"smiles": "CCS(=O)(=O)Nc1ccc2c(c1)C(=O)N(C)C[C@H](OC)[C@@H](C)CN(C(=O)c1ccc3c(c1)OCO3)[C@@H](C)CO2", "relative growth": "inactive: 1"}, {"smiles": "C[C@@H]1CCCCO[C@H](CN(C)C(=O)Nc2ccccc2)[C@H](C)CN([C@@H](C)CO)C(=O)c2cc(NC(=O)c3ccncc3)ccc2O1", "relative growth": "inactive: 0.966"}, {"smiles": "COCC#Cc1ccc2c(c1)O[C@H](CN(C)C(=O)C1CCCCC1)[C@H](C)CN([C@@H](C)CO)S2(=O)=O", "relative growth": "inactive: 1.01"}, {"smiles": "CN1CCN(C(=O)C[C@@H]2CC[C@@H]3[C@H](COC[C@H](O)CN3S(=O)(=O)c3cccc(F)c3)O2)CC1", "relative growth": "inactive: 1.02"}, {"smiles": "Cc1ccc(S(=O)(=O)N(C)C[C@H]2Oc3ccc(NC(=O)Nc4cccc5ccccc45)cc3CC(=O)N([C@@H](C)CO)C[C@@H]2C)cc1", "relative growth": "inactive: 1.02"}, {"smiles": "O=C(NCCCN1CCOCC1)c1ccc(Cl)cc1", "relative growth": "inactive: 1.06"}, {"smiles": "Cc1noc(C)c1NC(=O)N(C)C[C@@H]1OCCCC[C@@H](C)Oc2ccc(NC(=O)Nc3ccc(C(F)(F)F)cc3)cc2C(=O)N([C@@H](C)CO)C[C@H]1C", "relative growth": "inactive: 1.01"}, {"smiles": "C[C@H]1CCCCO[C@H](CN(C)S(=O)(=O)c2ccccc2)[C@@H](C)CN([C@@H](C)CO)C(=O)c2cc(NS(=O)(=O)c3cn(C)cn3)ccc2O1", "relative growth": "inactive: 1.02"}, {"smiles": "C[C@@H]1CCCCO[C@H](CN(C)C(=O)Nc2ccc(C(F)(F)F)cc2)[C@@H](C)CN([C@@H](C)CO)C(=O)c2cc(NS(=O)(=O)c3ccc(F)cc3)ccc2O1", "relative growth": "inactive: 1.01"}, {"smiles": "C[C@@H]1CN([C@@H](C)CO)C(=O)c2cc(NC(=O)CCCCCC(=O)Nc3ccccc3N)ccc2O[C@H]1CN(C)CC1CCCCC1", "relative growth": "inactive: 0.987"}, {"smiles": "CC(C)NC(=O)N[C@@H]1C=C[C@@H](CC(=O)O)O[C@@H]1CO", "relative growth": "inactive: 0.997"}, {"smiles": "O=C(CCCCC(=O)N/N=C/[C@@H](O)[C@@H](O)[C@H](O)[C@H](O)CO)NO", "relative growth": "inactive: 1.03"}, {"smiles": "Cc1ccc(S(=O)(=O)Nc2ccc3c(c2)C(=O)N([C@H](C)CO)C[C@@H](C)[C@H](CN(C)Cc2ccc(Cl)c(Cl)c2)OCCCC[C@H](C)O3)cc1", "relative growth": "inactive: 0.989"}, {"smiles": "CNC(=O)C[C@@H]1CC[C@@H]2[C@H](COC[C@H](O)CN2C(=O)c2ccc3c(c2)OCO3)O1", "relative growth": "inactive: 1.01"}, {"smiles": "C=C(C(=O)O[C@H]1CC=C(C)C[C@H](O)[C@H]2[C@H](C)C(=O)O[C@@H]2/C=C/1C)[C@@H]1CCC(=C)[C@@H]2C[C@H](O[C@@H]3O[C@H](COC(=O)CC(=O)O)[C@@H](O)[C@H](O)[C@H]3O)C(=C)[C@@H]2C1", "relative growth": "inactive: 1"}, {"smiles": "CN(C)c1cc(CNCC(C)(C)C)c(O)c2c1C[C@H]1C[C@H]3[C@H](N(C)C)C(=O)[C@H](C(N)=O)C(=O)[C@@]3(O)C(=O)[C@@H]1C2=O", "relative growth": "active: 0.0692"}, {"smiles": "C[C@@H]1CCCCO[C@@H](CN(C)C(=O)C2CCCCC2)[C@H](C)CN([C@@H](C)CO)C(=O)c2cc(NC(=O)CCCCCC(=O)Nc3ccccc3N)ccc2O1", "relative growth": "inactive: 0.981"}, {"smiles": "COCC(=O)N1CC[C@]2(CC1)CN([C@H](CO)c1c2c2ccc(cc2n1C)OC)C(=O)Cc1ccccc1", "relative growth": "inactive: 0.977"}, {"smiles": "CC(C)=CCC[C@](C)(O[C@@H]1O[C@H](CO)[C@@H](O)[C@H](O)[C@H]1O)[C@H]1CC[C@]2(C)[C@@H]1[C@H](O)C[C@@H]1[C@@]3(C)CC[C@H](O)C(C)(C)[C@@H]3[C@@H](O[C@@H]3O[C@H](CO)[C@@H](O)[C@H](O)[C@H]3O[C@@H]3O[C@@H](C)[C@H](O)[C@@H](O)[C@H]3O)C[C@]12C", "relative growth": "inactive: 1"}, {"smiles": "COCC(=O)NC1CCN(C2CCNCC2)CC1", "relative growth": "inactive: 0.993"}, {"smiles": "C[C@@H]1CCCCO[C@@H](CN(C)C(=O)NC2CCCCC2)[C@@H](C)CN([C@@H](C)CO)C(=O)c2cc(NS(=O)(=O)c3cccs3)ccc2O1", "relative growth": "inactive: 0.967"}, {"smiles": "COC(=O)c1c(OC)cc2c(c1C)Oc1c(Cl)c(O)c(Cl)c(C)c1C(=O)O2", "relative growth": "inactive: 0.935"}, {"smiles": "CC(=O)N1CCC(C(=O)O)CC1", "relative growth": "inactive: 1.02"}, {"smiles": "C[C@@H]1CN([C@@H](C)CO)C(=O)c2cc(NC(=O)c3ccncc3)ccc2O[C@@H]1CN(C)S(=O)(=O)c1ccccc1", "relative growth": "inactive: 1.01"}, {"smiles": "C[C@@H]1CCCCO[C@H](CN(C)S(=O)(=O)c2ccc(Cl)cc2)[C@H](C)CN([C@@H](C)CO)C(=O)c2cc(NS(=O)(=O)c3ccc(Cl)cc3)ccc2O1", "relative growth": "inactive: 1.02"}, {"smiles": "Cc1noc(C)c1NC(=O)N(C)C[C@H]1Oc2c(NC(=O)c3ccc(-c4nccs4)cc3)cccc2C(=O)N([C@@H](C)CO)C[C@@H]1C", "relative growth": "inactive: 0.986"}, {"smiles": "C[C@@H]1CCCCO[C@@H](CN(C)C(=O)Nc2ccc3c(c2)OCO3)[C@@H](C)CN([C@@H](C)CO)C(=O)c2cc(NC(=O)Nc3ccccc3)ccc2O1", "relative growth": "inactive: 1.04"}, {"smiles": "C[C@@H]1CN([C@@H](C)CO)C(=O)c2cc(-c3ccc(C#N)cc3)cnc2O[C@H]1CN(C)C(=O)Nc1ccc(C(F)(F)F)cc1", "relative growth": "inactive: 0.998"}, {"smiles": "CO[C@H]1CN(C)C(=O)c2ccc(NS(C)(=O)=O)cc2OC[C@@H](C)N(C(=O)CN(C)C)C[C@H]1C", "relative growth": "inactive: 0.992"}, {"smiles": "O=C(C[C@@H]1CC[C@H]2[C@@H](COC[C@H](O)CN2C(=O)C2CC2)O1)NCc1ccncc1", "relative growth": "inactive: 1"}, {"smiles": "Cc1ccc(S[C@]2(C(=O)NCC(F)(F)F)CC(=O)N(Cc3ccccc3C(F)(F)F)[C@@H]2c2ccc(CO)cc2)cc1", "relative growth": "inactive: 1.01"}]}]}
